The shares of active, inactive and inconclusive entries below differ from those in the screen. For some assays here: Potencies of inconclusive entries are doubtful fits and often do not repeat. Active and inactive are the calls of the source. Unless noted, the call rests on the fitted dose curve; in most records, active means well fitted curve in either direction with a large enough effect (not every such curve was filed as active); inconclusive means small, poorly fitted or top-dose-only effect, or another doubt; inactive means flat fitted curve, though single readings scatter.
Tests used:
[1] = AP1 Signaling Pathway (AID 357); details: ME-180 AP-1-bla reporter, EGF-induced, beta-lactamase ratio, 5 h; at 17.2 µM (top of the series) unless noted;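 further: ME-180 reporter cells stimulated with EGF at its EC50 level; top concentration of the series differs between compounds; on the % scale 0 is the no-effect control and ±100 the full control effect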
Procedure, shortened: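 In this screen, ME-180 cells in Opti-MEM with 0.5% dialyzed FBS received EC50 EGF and compound titrations for 5 h. AP-1 reporter beta-lactamase was detected via CCF4 ratio, giving AC50 for positive and negative modulators.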

[2] = NFAT Signaling Pathway (AID 444); details: Jurkat NFAT-bla M1, carbachol, beta-lactamase ratio, 5 h; at 7.69 µM (top of the series) unless noted;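 further: carbachol stimulus at about its EC50 of 1 µM final; on the % scale 0 is the no-effect control and ±100 the full control effect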
Procedure, shortened: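 Jurkat cells carrying an NFAT-driven β-lactamase reporter and co-transfected muscarinic M1 receptor were treated with compound plus carbachol (1 uM final, an EC50 level) for 5 h at 37 °C. CCF4 loading followed for 1 h at RT; 460/530 nm ratio gave %activity.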

[3] = Stat Signaling Pathway (AID 446); details: ME-180 SIE beta-lactamase reporter, IL-6 stimulated, 5 h; at 38 µM (top of the series) unless noted;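 further: ME-180 cervical cancer cells given 40 pM IL-6 alongside compound; SIE-controlled beta-lactamase reporter measured as 460/530 nm FRET emission ratio; top concentration of the series differs between compounds; on the % scale 0 is the no-effect control and ±100 the full control effect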
Procedure, shortened: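 Reporter line: ME-180 cervical carcinoma, SIE-beta-lactamase. Treatment: compound with 40 pM IL-6, 5 hrs, 37 C, in low-serum OPTI-MEM with 10 mM HEPES pH 7.3. Detection: 460/530 nm fluorescence.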

[4] = biological target: Cytochrome P450 2C9 (Homo sapiens) (UniProt P11712); experiment: qHTS Assay for Inhibitors and Substrates of Cytochrome P450 2C9 (AID 883; active means well fitted curve in the direction sought with a large enough effect; inconclusive means small, poorly fitted or top-dose-only effect, or another doubt; inactive means no such curve, though single readings can be large; an effect the other way counts as inactive or inconclusive; further: potency means the concentration at half of the fitted maximal effect; nearly all actives have a fitted effect of over 60% in size)
Sequence of UniProt P11712 (P11712 whole entry, looked up): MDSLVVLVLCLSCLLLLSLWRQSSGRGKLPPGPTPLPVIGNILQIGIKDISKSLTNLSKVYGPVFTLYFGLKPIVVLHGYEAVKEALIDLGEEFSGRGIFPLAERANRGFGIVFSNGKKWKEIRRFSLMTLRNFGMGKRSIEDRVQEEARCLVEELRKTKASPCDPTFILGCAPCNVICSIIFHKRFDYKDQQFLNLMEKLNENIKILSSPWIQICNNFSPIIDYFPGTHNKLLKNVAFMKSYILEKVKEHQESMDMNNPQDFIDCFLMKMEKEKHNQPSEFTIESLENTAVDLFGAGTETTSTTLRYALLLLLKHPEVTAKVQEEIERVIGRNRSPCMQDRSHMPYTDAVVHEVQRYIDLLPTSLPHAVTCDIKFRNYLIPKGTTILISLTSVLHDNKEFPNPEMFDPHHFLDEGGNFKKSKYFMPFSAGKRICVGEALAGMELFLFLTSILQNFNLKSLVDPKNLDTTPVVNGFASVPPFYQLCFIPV
Procedure, shortened: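 A luminogenic readout tracked human CYP2C9 (10nM) converting deoxyluciferin (100uM, at KM) in 25mM KPO4 during 60 min at 37C with regenerated NADPH. Values normalized to 57uM sulphaphenazole as complete inhibition.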

[5] = biological target: Cytochrome P450 2D6 (Homo sapiens) (UniProt P10635); experiment: qHTS Assay for Inhibitors and Substrates of Cytochrome P450 2D6 (AID 891; active means well fitted curve in the direction sought with a large enough effect; inconclusive means small, poorly fitted or top-dose-only effect, or another doubt; inactive means no such curve, though single readings can be large; an effect the other way counts as inactive or inconclusive;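 further: luciferin methyl ether substrate demethylated by CYP2D6 with NADPH regeneration; potency means the concentration at half of the fitted maximal effect; nearly all actives have a fitted effect of over 60% in size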)
Sequence of UniProt P10635 (P10635 whole entry, looked up): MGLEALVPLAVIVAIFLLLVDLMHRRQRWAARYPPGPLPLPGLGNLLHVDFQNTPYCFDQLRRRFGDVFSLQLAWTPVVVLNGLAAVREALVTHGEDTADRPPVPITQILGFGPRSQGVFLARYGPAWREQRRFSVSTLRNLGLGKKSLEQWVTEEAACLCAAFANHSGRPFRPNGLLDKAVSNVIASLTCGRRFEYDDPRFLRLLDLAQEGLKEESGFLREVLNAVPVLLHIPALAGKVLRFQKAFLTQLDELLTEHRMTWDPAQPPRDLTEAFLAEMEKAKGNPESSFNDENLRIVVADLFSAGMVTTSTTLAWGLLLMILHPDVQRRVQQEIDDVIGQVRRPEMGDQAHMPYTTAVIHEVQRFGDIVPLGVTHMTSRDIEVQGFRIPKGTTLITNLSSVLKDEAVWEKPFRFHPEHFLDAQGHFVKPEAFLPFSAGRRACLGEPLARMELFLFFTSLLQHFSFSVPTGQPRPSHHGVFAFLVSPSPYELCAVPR
Procedure, shortened: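 Human CYP2D6 (5 nM) with 30 uM Luciferin-ME EGE (at Km) in 100 mM KPO4, compound preincubated 10 min, then NADPH regeneration system for 60 min at room temperature. Luciferin read by luminescence; normalized to 1.43 uM quinidine.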

[6] = qHTS Assay for Identification of Small Molecule Agonists for Hypoxia Response Element Signaling Pathway (AID 914; active means well fitted activation curve with a large enough effect in the signal ratio, with a control signal flat, not every such curve was filed as active; inconclusive means small, poorly fitted or top-dose-only effect, or effect the other way, or a change in a side signal; the % refers to the signal ratio; further: potency means the concentration at half of the fitted maximal effect; on activation: top concentration of the series differs between compounds; % of control where 0% means no effect); details: ME-180 (cervical carcinoma) HRE-bla reporter, beta-lactamase ratio, CoCl2, 17 h; activation: hits give high values
Procedure, shortened: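 Reporter activity (beta-lactamase, CCF4 460nm/530nm ratio) in HRE-bla ME-180 cells is recorded after 17 h compound exposure with EC50 CoCl2 at 37 degrees Celsius. AC50 values come from titration data.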

[7] = biological target: Glucocorticoid receptor (Homo sapiens) (UniProt P04150); experiment: GR-EFC Redistribution (AID 451; calls by dose curve; further: potency means the concentration at half of the fitted maximal effect); details: CHO-K1 GR-EFC translocation, beta-gal luminescence, 2 h
Sequence of UniProt P04150 (P04150 whole entry, looked up, the tested form may be a part): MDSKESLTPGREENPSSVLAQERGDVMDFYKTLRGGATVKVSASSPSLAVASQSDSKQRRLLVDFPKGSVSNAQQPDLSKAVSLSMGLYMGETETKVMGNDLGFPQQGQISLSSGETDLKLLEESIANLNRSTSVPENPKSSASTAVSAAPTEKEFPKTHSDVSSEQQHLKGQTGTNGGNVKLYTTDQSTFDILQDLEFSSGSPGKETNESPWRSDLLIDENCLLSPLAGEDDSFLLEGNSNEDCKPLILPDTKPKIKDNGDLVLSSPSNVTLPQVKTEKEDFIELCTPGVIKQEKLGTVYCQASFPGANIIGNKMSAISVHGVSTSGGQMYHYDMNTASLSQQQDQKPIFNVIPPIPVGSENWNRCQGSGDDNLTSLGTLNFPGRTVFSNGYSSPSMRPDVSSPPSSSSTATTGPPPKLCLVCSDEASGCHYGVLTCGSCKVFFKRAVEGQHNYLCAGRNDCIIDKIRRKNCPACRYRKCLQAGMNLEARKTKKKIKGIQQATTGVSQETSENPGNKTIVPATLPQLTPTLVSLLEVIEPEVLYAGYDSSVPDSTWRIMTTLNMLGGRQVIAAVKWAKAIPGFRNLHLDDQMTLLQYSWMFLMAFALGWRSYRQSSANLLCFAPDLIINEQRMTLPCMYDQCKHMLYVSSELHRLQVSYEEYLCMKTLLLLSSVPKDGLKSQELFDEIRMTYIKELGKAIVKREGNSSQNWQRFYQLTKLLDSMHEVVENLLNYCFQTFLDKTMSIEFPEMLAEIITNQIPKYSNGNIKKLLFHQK
Procedure, shortened: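 CHO-K1 cells stably expressing nuclear-localized β-gal enzyme acceptor and GR fused C-terminally to the enzyme donor fragment; ligand-driven nuclear translocation restores β-gal by complementation. Compounds titrated up to 46 uM final, 2 h at 37 °C; luminescence read.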

[8] = biological target: 3',5'-cyclic-AMP phosphodiesterase 4B (Homo sapiens) (UniProt Q07343); experiment: qHTS Assay for Inhibitors of PDE-IV (AID 607; active means well fitted activation curve with a large enough effect in the main read-out, with a control signal flat, not every such curve was filed as active; inconclusive means small, poorly fitted or top-dose-only effect, or effect the other way, or a change in a side signal; further: potency means the concentration at half of the fitted maximal effect); details: HEK293 ACTOne CNG channel cells, membrane potential fluorescence; activation (PDE inhibition): at 22.9 µM (top of the series)
Sequence of UniProt Q07343 (Q07343 whole entry, looked up): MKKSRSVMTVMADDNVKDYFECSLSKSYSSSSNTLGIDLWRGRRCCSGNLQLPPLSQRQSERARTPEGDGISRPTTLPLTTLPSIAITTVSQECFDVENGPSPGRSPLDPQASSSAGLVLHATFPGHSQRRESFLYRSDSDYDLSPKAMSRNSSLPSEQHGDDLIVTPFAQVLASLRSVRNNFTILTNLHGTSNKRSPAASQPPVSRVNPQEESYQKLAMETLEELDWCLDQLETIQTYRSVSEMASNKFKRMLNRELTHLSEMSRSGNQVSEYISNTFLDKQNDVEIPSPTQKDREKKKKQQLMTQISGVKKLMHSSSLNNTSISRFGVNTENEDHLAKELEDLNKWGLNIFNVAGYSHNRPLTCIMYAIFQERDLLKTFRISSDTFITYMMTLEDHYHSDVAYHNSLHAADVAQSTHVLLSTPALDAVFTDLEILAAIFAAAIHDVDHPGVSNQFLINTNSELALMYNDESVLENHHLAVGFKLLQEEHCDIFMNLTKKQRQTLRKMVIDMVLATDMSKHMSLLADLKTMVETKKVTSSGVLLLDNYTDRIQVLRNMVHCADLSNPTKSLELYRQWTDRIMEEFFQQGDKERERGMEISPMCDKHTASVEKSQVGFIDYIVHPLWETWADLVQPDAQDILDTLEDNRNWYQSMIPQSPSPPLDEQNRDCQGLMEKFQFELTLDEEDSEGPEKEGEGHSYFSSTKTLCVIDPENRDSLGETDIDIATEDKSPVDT
Procedure, shortened: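 Cell-based read-out of cAMP via a modified cyclic nucleotide-gated channel and membrane potential dye (535/590 nm) in HEK293 cells expressing PDE4 endogenously. Compounds tested up to 22.9 uM final; 100 uM RO 20-1724 reference.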

[9] = qHTS screen for small molecules that inhibit ELG1-dependent DNA repair: Hit Confirmation in Cell-Based Luciferin Assay (AID 624247; active means well fitted curve in the direction sought with a large enough effect; inconclusive means small, poorly fitted or top-dose-only effect, or another doubt; inactive means no such curve, though single readings can be large; an effect the other way counts as inactive or inconclusive; further: potency means the concentration at half of the fitted maximal effect); details: cell-free firefly luciferase luminescence counter-screen, ViewLux
Procedure, shortened: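 Here each well gets substrate reagent, then test compound or DMSO, then luciferase. Emitted light is measured with a CCD plate reader.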

[10] = qHTS screen for small molecules that inhibit ELG1-dependent DNA repair: Hit Confirmation with 5FU Viability (AID 624250; active means well fitted curve in the direction sought with a large enough effect; inconclusive means small, poorly fitted or top-dose-only effect, or another doubt; inactive means no such curve, though single readings can be large; an effect the other way counts as inactive or inconclusive;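 further: potency means the concentration at half of the fitted maximal effect; viability measured 16 h after compound addition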)
Procedure, shortened: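 After 16 h incubation with test compounds and 10 µM final 5-fluorouridine, ELG1-luc HEK293T cell viability is read using CellTiter-Glo.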

[11] = biological target: Flap endonuclease 1 (Homo sapiens) (UniProt P39748); experiment: qHTS Assay for the Inhibitors of FEN1: Confirmatory Assay for Cherry-picked Compounds (AID 720498; active means well fitted curve in the direction sought with a large enough effect; inconclusive means small, poorly fitted or top-dose-only effect, or another doubt; inactive means no such curve, though single readings can be large; an effect the other way counts as inactive or inconclusive; further: potency means the concentration at half of the fitted maximal effect; nearly all actives have a fitted effect of over 60% in size); details: FEN1 flap cleavage, TAMRA/BHQ2 fluorogenic DNA substrate
Sequence of UniProt P39748 (P39748 whole entry, looked up): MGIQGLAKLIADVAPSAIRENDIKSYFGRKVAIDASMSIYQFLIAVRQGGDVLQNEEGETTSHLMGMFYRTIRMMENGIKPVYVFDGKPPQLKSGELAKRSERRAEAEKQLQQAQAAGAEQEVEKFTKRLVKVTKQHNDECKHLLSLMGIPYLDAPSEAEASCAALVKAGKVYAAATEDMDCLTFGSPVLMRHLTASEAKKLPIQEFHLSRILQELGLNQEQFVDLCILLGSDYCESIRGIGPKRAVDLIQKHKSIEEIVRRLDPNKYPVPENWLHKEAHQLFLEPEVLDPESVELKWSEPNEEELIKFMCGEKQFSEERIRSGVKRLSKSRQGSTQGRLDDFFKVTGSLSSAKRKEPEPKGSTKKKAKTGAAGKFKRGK
Procedure, shortened: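 FEN1 at 10 nM was preincubated with compound for 15 min at room temperature, then 50 nM (final) double-flap DNA substrate was added. TAMRA fluorescence released from the BHQ-2-quenched flap was read at 0 and 15 min (ex 525/em 598 nm).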

[12] = biological target: Mitogen-activated protein kinase 10 (Mus musculus) (UniProt Q61831); experiment: JNK3 AlphaScreen Assay (AID 530); details: JNK3 lysate, c-Jun phosphorylation; activity change, negative = inhibition: at 57.1 µM (top of the series);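 further: kinase came from lysate of stimulated human HepG2 cells; signal reports phosphorylation of biotinylated GST-cJun 1-79 at Ser73 with 10 µM ATP; potency means the concentration at half of the fitted maximal effect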
Procedure, shortened: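 JNK3 came from HepG2 lysates pre-activated with IL-1beta and TNF-alpha and phosphorylated biotinylated GST-cJun (1-79) at 10 uM ATP, pH 7.6, room temperature. Compounds were titrated. AlphaScreen signal used anti-phospho-cJun (Ser73) antibody.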

[13] = qHTS Assay for Identification of Small Molecule Antagonists for NFkB Signaling Pathway (AID 895; active means well fitted inhibition curve with a large enough effect in the signal ratio, with a control signal flat, not every such curve was filed as active; inconclusive means small, poorly fitted or top-dose-only effect, or effect the other way, or a change in a side signal; the % refers to the signal ratio; further: potency means the concentration at half of the fitted maximal effect); details: NFkB beta-lactamase reporter cells, FRET ratio 460/530; activity change, negative = inhibition: at 38.3 µM (top of the series) unless noted
Procedure, shortened: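 NFkB-bla ME-180 cervical carcinoma cells with beta-lactamase reporter under NFkB response element; compounds added, then TNF alpha at 10 pM final (EC50), 5 h at 37 C. LiveBLAzer substrate 2 h, room temperature; emission 460/530 nm at 405 nm excitation.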

[14] = qHTS Assay for Identification of Small Molecule Antagonists for Thrombopoietin (TPO) Signaling Pathway (AID 918; active means well fitted curve in the direction sought with a large enough effect; inconclusive means small, poorly fitted or top-dose-only effect, or another doubt; inactive means no such curve, though single readings can be large; an effect the other way counts as inactive or inconclusive; further: nearly all actives have a fitted effect of over 60% in size); details: TPO-dependent cell signaling reporter, antagonist mode; activity change, negative = inhibition: at 38.5 µM (top of the series)
Procedure, shortened: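 First, Ba/F3 reporter cells expressing human TPO receptor were held overnight without IL-3. Next, compound and 26 pM TPO were added. After 24 hrs incubation at 37 C, luciferase luminescence under the Glycoprotein IIb promoter was recorded.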

[15] = biological target: Muscarinic acetylcholine receptor M1 (Rattus norvegicus) (UniProt P08482); experiment: qHTS Assay for Antagonists of Acetylcholine Muscarinic M1 Receptor: Kinetic Measurement of Intracellular Calcium Response (AID 943; active means well fitted curve in the direction sought with a large enough effect; inconclusive means small, poorly fitted or top-dose-only effect, or another doubt; inactive means no such curve, though single readings can be large; an effect the other way counts as inactive or inconclusive; further: potency means the concentration at half of the fitted maximal effect; nearly all actives have a fitted effect of over 75% in size)
Sequence of UniProt P08482 (P08482 whole entry, looked up): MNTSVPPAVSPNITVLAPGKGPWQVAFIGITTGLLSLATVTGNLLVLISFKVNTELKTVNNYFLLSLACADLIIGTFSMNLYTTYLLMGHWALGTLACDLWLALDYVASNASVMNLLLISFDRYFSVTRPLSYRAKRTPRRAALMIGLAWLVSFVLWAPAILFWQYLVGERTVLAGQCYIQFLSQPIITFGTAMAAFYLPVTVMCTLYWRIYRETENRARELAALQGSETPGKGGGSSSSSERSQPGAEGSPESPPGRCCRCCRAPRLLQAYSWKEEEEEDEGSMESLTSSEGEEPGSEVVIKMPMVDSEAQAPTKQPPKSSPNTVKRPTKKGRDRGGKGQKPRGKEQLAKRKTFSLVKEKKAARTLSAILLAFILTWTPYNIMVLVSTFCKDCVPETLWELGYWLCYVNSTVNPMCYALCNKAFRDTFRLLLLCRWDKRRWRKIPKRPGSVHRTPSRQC
Procedure, shortened: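 Intracellular calcium flux, recorded with Fluo-4 in a kinetic plate reader, served as signal; the response to carbachol at EC80 (100 nM final) was taken as maximal over minimal fluorescence after a 10 min compound pre-incubation in rat M1-CHO cells.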

[16] = biological target: Muscarinic acetylcholine receptor M1 (Rattus norvegicus) (UniProt P08482); experiment: qHTS Assay for Antagonists of Acetylcholine Muscarinic M1 Receptor: Measurement of IP-One Response (AID 944; active means well fitted curve in the direction sought with a large enough effect; inconclusive means small, poorly fitted or top-dose-only effect, or another doubt; inactive means no such curve, though single readings can be large; an effect the other way counts as inactive or inconclusive; further: potency means the concentration at half of the fitted maximal effect; nearly all actives have a fitted effect of over 75% in size)
Tags describe the fitted curve by direction and shape or compound fluorescence and quenching.

For `CC[C@]1(OC(=O)CN)C(=O)OCc2c1cc1n(c2=O)Cc2cc3ccccc3nc2-1`, the activity change, negative = inhibition [1] was inconclusive: -100% [inhibitor] [at 7.69 µM], the activity change, negative = inhibition [2] was inconclusive: -106% [inhibitor] and the activity, negative = inhibition [3] was inconclusive: -99.1% [inhibitor] [at 7.69 µM].
For `Cc1ccc(NC(=[OH+])c2cc3ccccc3cc2O)c(C)c1.Cc1ccc(NC(=[OH+])c2cc3ccccc3cc2O)c(C)c1.[Ni]`, the activity change, negative = inhibition [1] was inconclusive: -37% [inhibitor] [at 7.69 µM], the activity change, negative = inhibition [2] was inconclusive: -128% [inhibitor] and the activity, negative = inhibition [3] was inconclusive: -59.8% [inhibitor] [at 7.69 µM]. The Potency [4] was active: 3.16 µM, the Potency [5] was inconclusive: 3.16 µM [inhibitor, partial curve] and the Potency [6] was inconclusive: 5.01 µM [inhibitor, single point].
With `CC1=NOC2(C)Nc3ncnn3C(c3ccccc3)C12` (stereo not given) the activity change, negative = inhibition [1] was inactive: 20.5% and the activity change, negative = inhibition [2] was inactive: -2.94% [at 17.2 µM].
With `CC(=O)O[C@H]1C[C@@H](O[C@@H]2[C@H](C)O[C@H](O[C@@H]3[C@H](C)O[C@H](O[C@@H]4CC[C@@]5(C)[C@@H](CC[C@]6(C)[C@]5(C)C[C@H](O)[C@]5(C)[C@@H](C7=CC(=O)OC7)CC[C@@]56O)C4)C[C@@H]3O)C[C@@H]2O)O[C@@H](C)[C@H]1O[C@H]1O[C@@H](CO)[C@@H](O)[C@@H](O)[C@@H]1O` the activity change, negative = inhibition [1] was inconclusive: -47.6% [inhibitor], the activity change, negative = inhibition [2] was inconclusive: -73.6% [inhibitor] [at 17.2 µM] and the activity, negative = inhibition [3] was inconclusive: -37.4% [inhibitor] [at 17.2 µM]. The Potency [7] was inconclusive: 60.6 µM [partial curve], the Potency [8] was inconclusive: 4.77 µM [rising, full curve] and the Potency [9] was inconclusive: 0.95 µM [inhibitor, full curve]. The Potency [10] was inconclusive: 0.847 µM [cytotoxic, full curve].
In the case of `C[C@H](c1ccccc1)N1CCN([C@@H](C)c2ccccc2)CC1`, the activity change, negative = inhibition [1] was inactive: -6.57% [at 7.69 µM] and the activity change, negative = inhibition [2] was inconclusive: -32.2% [inhibitor].
In the case of `CN1CCc2nc3sc(C#N)c(N)c3c(-c3cccs3)c2C1`, the activity change, negative = inhibition [1] was inactive: -0.879%, the activity change, negative = inhibition [2] was inconclusive: -53% [inhibitor] [at 17.2 µM] and the activity, negative = inhibition [3] was inconclusive: 40.4% [activator] [at 17.2 µM]. The activation [6] was inconclusive: -53.8% and the Potency [11] was inconclusive: 42.6 µM [inhibitor, partial curve].
In the case of `C[C@@]12CC[C@H](O)C[C@@H]1CC[C@H]1[C@H]2CC[C@@]2(C)[C@@H](C3=CC(=O)OC3)CC[C@]12O`, the activity change, negative = inhibition [1] was inconclusive: -44.5% [inhibitor], the activity change, negative = inhibition [2] was active: -74.9% [at 17.2 µM] and the Potency [8] was inconclusive: 6 µM [activator, partial curve].
For `C[C@@H]1O[C@@H](O[C@H]2C[C@@H](O)[C@]3(CO)[C@@H]4[C@@H](O)C[C@]5(C)[C@H]([C@@H]6COC(=O)C6)CC[C@@]5(O)[C@H]4CC[C@@]3(O)C2)[C@H](O)[C@H](O)[C@@H]1O`, the activity change, negative = inhibition [1] was inconclusive: -32.1% [inhibitor] [at 38 µM], the activity change, negative = inhibition [2] was inconclusive: -77.3% [inhibitor] [at 38 µM] and the Potency [12] was inconclusive: 0.00251 µM [inhibitor, full curve, poor fit]. The Potency [13] was inconclusive: 0.199 µM [inhibitor, full curve], the activity change, negative = inhibition [14] was inconclusive: -14.2% [phenotype inactive] and the Potency [15] was inconclusive: 0.794 µM [inhibitor, partial curve, poor fit]. The Potency [16] was inconclusive: 12.6 µM [inhibitor, partial curve, poor fit].

Source: PubChem BioAssay (NCATS)
